Source: PubChem BioAssay AID1460 (National Center for Advancing Translational Sciences (NCATS), 2008)
Screen size: about 270,000 compounds; about 5,800 (2.1%) were called active. The inconclusive results got no clear call from the source; some entries with a clear call stand among them for comparison. The call rests on the fitted dose curve; in most records, active means well fitted inhibition curve with a large enough effect; inconclusive means small, poorly fitted or top-dose-only effect; inactive means flat fitted curve, though single readings scatter. Where the call is inconclusive, the potency comes from a doubtful curve fit.

biological target: Microtubule-associated protein tau (Homo sapiens) (UniProt P10636); assay: qHTS for Inhibitors of Tau Fibril Formation, Thioflavin T Binding; settings: recombinant tau K18 P301L (four-repeat tau fragment), heparin-induced fibrillization, ThT fluorescence; series mostly up to 57.4 µM; further: nearly all actives have a fitted effect of over 55% in size
Chain of UniProt P10636 (P10636 whole entry, looked up, the tested form may be a part): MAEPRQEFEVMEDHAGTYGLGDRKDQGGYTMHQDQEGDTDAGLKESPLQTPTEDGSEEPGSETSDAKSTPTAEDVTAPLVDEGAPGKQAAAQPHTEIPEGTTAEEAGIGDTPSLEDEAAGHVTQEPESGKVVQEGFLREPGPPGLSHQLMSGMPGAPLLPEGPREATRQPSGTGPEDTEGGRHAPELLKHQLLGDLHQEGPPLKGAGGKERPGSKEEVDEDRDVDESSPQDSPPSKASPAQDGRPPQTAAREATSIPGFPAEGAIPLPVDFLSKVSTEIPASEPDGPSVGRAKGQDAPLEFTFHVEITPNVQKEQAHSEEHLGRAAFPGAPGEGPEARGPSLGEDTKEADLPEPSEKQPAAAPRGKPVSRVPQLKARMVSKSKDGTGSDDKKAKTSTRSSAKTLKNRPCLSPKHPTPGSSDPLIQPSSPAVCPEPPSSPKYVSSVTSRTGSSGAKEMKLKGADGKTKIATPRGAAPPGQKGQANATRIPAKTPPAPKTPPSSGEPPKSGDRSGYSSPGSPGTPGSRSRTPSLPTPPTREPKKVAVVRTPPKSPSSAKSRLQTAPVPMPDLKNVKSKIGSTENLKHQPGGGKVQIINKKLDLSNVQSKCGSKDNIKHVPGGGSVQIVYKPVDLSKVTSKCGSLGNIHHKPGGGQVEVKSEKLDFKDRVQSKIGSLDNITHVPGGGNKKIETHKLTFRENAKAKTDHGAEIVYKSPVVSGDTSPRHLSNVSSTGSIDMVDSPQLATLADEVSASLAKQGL
Summary of the method: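 Aggregation was driven by heparin (20 uM final) acting on recombinant tau […] bearing P301L in 100 mM sodium acetate pH 7; fibrils were detected with Thioflavin T.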
Potency means the concentration at half of the fitted maximal effect; tags describe the fitted curve by direction and shape.

Compound	Potency
O=C1S/C(=C/c2ccc(N3CCOCC3)o2)C(=O)N1Cc1c(F)cccc1Cl	inconclusive: 20 µM [inhibitor, partial curve]
COc1ccc(C(=O)Nc2ccc(OCc3cc(=O)n4ccsc4n3)cc2)cc1OC	inconclusive: 2.82 µM [inhibitor, full curve]
Nc1cc(C(=O)O)ccc1Nc1ccccc1	inconclusive: 35.5 µM [inhibitor, partial curve]
Cc1cccc(C(=O)NC(=O)Nc2ccc(-c3cc(C(F)(F)F)nn3-c3ccccc3)cc2)c1	inconclusive: 10 µM [inhibitor, single point]
CCC(C)NC(=O)c1cn(-c2cccc(C)n2)cn1 (configuration not stated)	inactive
Cc1cc(=O)n2nc(N3CCC(C(=O)NCc4ccccc4)CC3)sc2n1	inconclusive: 15.8 µM [inhibitor, partial curve]
Cc1ccc(NC(=O)Cn2cnc3nc4c(cc3c2=O)CCCC4)cc1Cl	inactive
COc1ccc(N2CCN(C(=O)C3CCN(S(=O)(=O)c4ccc(C)cc4)CC3)CC2)cc1	inconclusive: 12.6 µM [inhibitor, partial curve]
CC(=NC1CC1)C1=C(O)c2ccccc2C1=O	inactive
O=C(CCS(=O)(=O)c1ccc(Br)cc1)Nc1ccc(Cl)c(C(F)(F)F)c1	inactive
CC(C)OC(=O)c1cccnc1N1CCN(c2ccc(F)cc2)CC1	inconclusive: 22.4 µM [inhibitor, partial curve, poor fit]
Cc1cc(C)c(Cn2c3ccccc3c3cnn(CC(=O)NCc4ccccn4)c(=O)c32)c(C)c1	inconclusive: 39.8 µM [inhibitor, single point]
Cc1csc2ncnc(NNC(=O)c3ccc(Cl)cc3)c12	inactive
Cc1ccc(/C=C/C(=O)Nc2ccc(S(N)(=O)=O)cc2)o1	inconclusive: 28.2 µM [inhibitor, partial curve]
Cc1cccc(CNc2ccc(C(CC(N)=O)NC(=O)Cc3cccc4ccccc34)cc2[N+](=O)[O-])c1 (configuration not stated)	inconclusive: 12.6 µM [inhibitor, partial curve]
Cc1ccc(-c2cc(NC(=O)COc3ccc(Cl)c(C)c3)on2)cc1	inconclusive: 1.41 µM [inhibitor, full curve]
CCN1CCN(C(=O)Cn2ncc3c4ccccc4n(Cc4ccccc4)c3c2=O)CC1	inactive
Cc1cc(C)c(NC(=O)CN2C(=O)c3cccnc3Oc3ccc(C)cc32)c(C)c1	inconclusive: 12.6 µM [inhibitor, single point]
Cc1ccc2nc(-c3c[nH]c4ccccc34)c(Nc3ccccc3C)n2c1	inactive
O=C(Nc1cccnc1)C1CCN(S(=O)(=O)c2cccs2)CC1	inactive
CC(/C=C/c1cccc([N+](=O)[O-])c1)=N\NC(=O)c1ccncc1	inconclusive: 20 µM [inhibitor, single point]
c1csc(Cn2c(-c3cccs3)nc3ccccc32)c1	inconclusive: 28.2 µM [inhibitor, partial curve, poor fit]
CCOc1ccccc1CNCCNCC(C)O (configuration not stated)	inactive
COc1ccc(N/C(C)=C/C(=O)c2ccccc2)cc1	inconclusive: 28.2 µM [inhibitor, single point]

Compound	Potency
COc1cccc(NC(=O)Cn2c(=O)n(CC(=O)NCc3ccc(C)cc3)c(=O)c3sccc32)c1	inactive
O=C(NCC(c1cccs1)S(=O)(=O)c1cccs1)c1ccc(Cl)cc1 (configuration not stated)	inactive
Cc1ccc(-n2c(SCC(=O)NCc3ccccc3)nc3n[nH]c(C)c3c2=N)cc1Cl	inactive
CN1C2CCC1CC(NC(=O)c1nn(C)c3ccccc13)C2 (configuration not stated)	inactive
CC(C)(C)OC(=O)N1CCC(c2cc(=O)n3[nH]cc(C(=O)Nc4ccc(F)c(Cl)c4)c3n2)CC1	inconclusive: 39.8 µM [inhibitor, single point]
CCOC(=O)C1=C(N)Oc2ccc(Br)cc2[C@@H]1[C@@H](C#N)C(=O)OCC	inactive
CCN(CC)CCNS(=O)(=O)c1ccc(OC)c(Br)c1	inactive
COC(=O)c1sc(NC(=O)COc2cccc3ccccc23)nc1C	inconclusive: 1 µM [inhibitor, full curve]
Cc1cccc(-c2nc3nc(C)cc(NCc4ccccc4Cl)n3n2)c1	inactive
CC(C)CC(=O)NCc1ccc(F)cc1	inactive
N#Cc1c(C(F)(F)F)cc(-c2ccc(Cl)cc2)nc1SCC(=O)O	inconclusive: 44.7 µM [inhibitor, single point]
COc1ccc(C2=CSC(/N=C/c3ccc(F)cc3)=NN2)cc1	active: 14.1 µM
O=C(CSc1ccc2c(c1)OCCO2)NCCc1ccc(Cl)cc1Cl	inconclusive: 31.6 µM [inhibitor, single point]
CC(C)N1C(=O)CC(Nc2cccc3cccc(N)c23)C1=O (configuration not stated)	inconclusive: 17.8 µM [inhibitor, partial curve]
COC(=O)[C@H](COC(C)(C)C)NC(=O)O[C@@H]1C(=O)c2cc(OC)ccc2O[C@H]1c1cccc(OC)c1	inactive
CCc1ccc(OCC(=O)N/N=C/c2cc([N+](=O)[O-])ccc2N2CCCCCC2)cc1	inconclusive: 22.4 µM [inhibitor, partial curve]
CCOC(=O)CSc1n[nH]c(NC(=O)c2cccc(C)c2)n1	inconclusive: 20 µM [inhibitor, single point]
CC(=O)OC1CC[C@@]2(C)C(CC[C@@]3(C)C2CC=C2C4CC(C)(C)CC[C@]4(C)CC[C@@]23C)C1(C)C (some centres not stated)	inactive
C[N+]1(CCCCCCC(=O)/C=N/O)CCCCCC1	inactive
COc1cc(CN2CCN(c3ccc(C)cc3)CC2)cc([N+](=O)[O-])c1O	inconclusive: 12.6 µM [inhibitor, partial curve]
CCn1c(COc2ccc(C)cc2)nc2ccccc21	inconclusive: 28.2 µM [inhibitor, partial curve]
O=C(NCC1CCCO1)C1c2ccccc2Oc2ccccc21 (configuration not stated)	inactive
Cc1ccccc1OCCN1C(=O)C(=O)c2cccc(C)c21	inconclusive: 28.2 µM [inhibitor, partial curve]
